Variants at the background level are over-represented here.
B1: TPR 5TU (parent)
chain: GGAUCUUCUCGAUCUAACAAAAAAGACAAAUCUGCCACAAAGCUUGAGAGCAUCUUCGGAUGCAGAGGCGGCAGCCUUCGGUGGCGCGAUAGCGCCAACGUUCUCAACUAUGACACGCAAAACGCGUGCUCCGUUGAAUGGAGUUUAUCAUG

Variants of: B1
Assay: polymerase ribozyme fitness, log enrichment relative to wild type (log ratio); higher = more active; in vitro selection for triplet polymerase activity
Method in brief: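 In triplicate, a single round of in vitro selection was run on each mutant library, PCR-built and transcribed, covering one subunit of a heterodimeric triplet polymerase ribozyme. Frozen incubation at −7 °C followed annealing with a biotinylated primer, partner subunit and triplets, and extended constructs were then gel-excised, streptavidin-captured and taken through RT-PCR. Fitness is the logarithm of genotype enrichment over wild-type enrichment, from inverse-variance-weighted replicate averages of Illumina-sequenced inputs and outputs. […] only genotypes with ≥10 input reads and ≥1 read per output were kept.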

Variant	polymerase ribozyme fitness (log ratio)
GGAUCUGCUCGAUCUUACUAAAAAGACAAAUCUGCCACAAAGCUUGACACCAUCUUCGGAUGCAGAGGCGGCAGCCUUCGGUGGCGAGAUAGCGCCAACGUUCUCAACUAUGACACGCAAAACGCGUCCUCCGUUGAAUGGAGUUCAUCAUG	≤ -4.2
GGAUCUGCUCGAUCUAACAACAAAGACAAAUCUGCUACAAAGCUUGAGAGCAUUUUCGGAUGCAGAGGCGGCAGCCUUGGGUAGCGCGAUAGCGCCAACGUUCUCAACUAUGACACGCAAAACGCGUGCUCCGUUGAAUGGAGAUUAUCAUG	≤ -4.2
GGAUCUGCUCGCUCUAACAAAAAAGACAAAUCUGCCACAAAGCUUGAGAGGAUCUUCGGAUGCCGAGGCGGCAGCCUUCGGUGGCGCGAUAGCGCCAACGUUCUCAACUAUGACACGCAAAAUGCGUGCUCGGUUGAAUGGAGUUUAUCAUG	≤ -4.2
GGAUCUCCUCGAUCUAACAAAAAAGACAAAUCUGCCACAAAGCUUGAGAGCAUCUUCGGAUGCAGAGGCGGCAGCCUUCGGUGGCGCGAUACCGCCAACGUUCUCAACUAUGACACGCAAAACGCGUGCUCCGUUGAAUGGAGUUUAUCAUG	-2.73
GGAUCUCCUCGAUCUAACAAAAAAGACAAAUCUGCCACAAAGCUUGAGAGCAUAUUCGGAUGCAGAGGCGGCAGCCUUCGCUGGCGCGAUAGCGCCUACGUUCUCAACUUUGACACGCAAAACGCGUGCUCCGUUGAAUGGAGUUUAUCAUG	≤ -4.2
GGAUCUCCUCGAUCUAACAAAAAAUACAAACCUGCCACAAAGCUUGAGAGCAUCUUCGGAUCCAGAGGCGGCAGUCUUCGGUGGCGCGAUAGCGCCAACGUUCUCAACUAUGACACUCAAAGCGCGUGCUCCGUUGAAUGGAGUUUAUCAUG	≤ -4.2
GGAUCUCCUCGAUCUAACAAAAAAGACAAAUCUGCCACAAAGCAUGAGAGCAUCUUCGGAUGCAGAGGCGGCAGCCUUCGGUGGCGCGAUAGUGCCAAUGUUCUCAACUAUGACACGCAAAAUGCGUGCUCCGUUCAAUGCAGUUUAUCAUG	≤ -4.2
GGAUCUGCUCGAUCUAGCAAAGAAGACAAAUCUGCCACAAAGCUUGAGAGCAUAUUCGGAUGCAGAGGCGGCAGCCUUCGGUGGCGUGAUAGCGCCAACGUUCUCAACUAUGACACGCAAAACGCGUGCCCCGUUGAAUGGAGUUUAUCAUG	≤ -4.2
GGAUCUCCUCGAUCUAACAAAAAAGACAAACCUGCCACGAACCUUGAGAGCAUCUUCGGAUGCAGAGGCGGCAGCCUUCGGUGGCGCGAUAACGCCAACGUUCUCAACUAUGACACGCAAAACGCGUGCUCCGUUGAAUGUAGUUUAUCAUG	≤ -4.2
GGAUCUCCUCGAUCUAACAAAAAAGACAAAUCUGCCACAAAGCUUGAGAGCAUCUUCGGAUGAAGGGGCGGCAGCCUUCGGUGGCGCGAUAGUGUCAACGUUCUCAACUAUGACACGCAAAACGCGUGCUCCCUUGAAUGGAGUUUAUCAUG	≤ -4.2
GGAUCUCCUCGAUCUAACAAAAAAGACAAAGCUGCCACAAAGCUUGUGAGCAUCUUCGGAUGCAGAGGCGCCAGCCUUCGGUGGCGCGAUAGCGUCAACGUUCUCAACUAUGACACGCAAAACGCGGGCUCCGUUGAAUGGAGUUUAUCAUG	≤ -4.2
GGAUCUCCUCGAUCUAACAAAAAAGACAAAUCUGCCACAAAGCUUGAGAGCAUCUUCGGAUGCAGAGGCGGCAGCCUUCGGUGGUGCGAUAGCGCCAACGGUCUCAAAUAUGACACGCAAAACGCGUGCUCCGUUGAAUGGAGUUUAUCAUG	≤ -4.2
GGAUCUCCUCGAUCUAACAAAAAAGACAAAUCUGCCACAAAGCUUGAGAGCAUCUUCGGAUGCAGAGGCGGCAGCCUUUUGUGGCGCGAUAGCUCCAACGUUCUCAACUAUGACACGCCAAACGCGUGCUCCGUUGAAUGGAGUUUUUCAUG	≤ -4.2
GGAUCUCCUCGAUCUAACAAAAAACACAAAUCUGCCACAAAGCUUGAGAUCAUCUACGGAUGCAGAAGCGGCAGCCUUCGGUGGCGUGAUAAGGCCAACGUUCUCAACUAUGACACGCAAAACGCGUGCUCCGUUGAAUGGAAUUUAUCAUG	≤ -4.2
GGAUCUCCUCGAUCAAACAAAAAAGACAAAUCUGCAACACAGCUUGAGAGCAUCUUCGGAUGCAGAGGCGGCAGCCUUCGGUGGCGCGAUAGCCCCAACGUUCUCAACUAUGACACGCAAAAAGCGUGCUCCGUUGAAUGGAGUUUAUCGUG	≤ -4.2
GGAUCUCCUCGAUCUAACAAAAAAGACAAAUCUGCCACAAAGCUUAAGAGCAUCUUCGGAUGCAUAGGCGGCAGCAGUAGGUGGCGCGAUAGCACAAACGUUCUCAACUAUGACACGCAAAACGCGUGCUCCGUAGAAUGGAGGUUAUCAUU	≤ -4.2
GGAUCUCCUCGAUCUAACAAAAAACAUAAAUCUGCCACAAAGCUUGAGACCAUCUUCGGAUGCAGUGGCGGCAGCCUUCGGUGGCGUGAUAGCGCCAACGUUCUCAACUAUGACACGCAAAACGCGUGCUCCGUUGAAUGGAGUUUAUCAUG	≤ -4.2
GGAUCUGCUCGAUCUAACAACAAAGACAAAUCUGACACAAAGCUUGCGAGCAUCUUCGGAUGCAGAGGCGGCAGCCUUCGGUGGCGCGAUAGCGCCAAAGUUCUCAACUAUGACACGCAAAAAGCGUGCUCCGUUGAAUGGAGUUUAUCAUG	≤ -4.2
GGAUCUCCUCGAUCAAAUAAAAAAGACCAAUCUGCCACAAAGCUUGAGAGCAUCUUCGGAUGCAGAGGCGGCAGCCUUCGGUAACGCGAUAGCGCCAACGUUCUCAACUAUGAAACGCAAAACGCGUGCUCCGUUGAAUGGAGUUUAUCAUG	≤ -4.2

Variant	polymerase ribozyme fitness (log ratio)
GGAUCUCCUCGAUCUAACAAAAAAGACAAAUCUGCCACAAAGCUUGAGAGCAUCUUCGGAUGCAGAGUCGGCGGCCUUCGGAGGCGCGAUAACGCCAACGCUCUCAACUAUGACAAGCAAAACGCGUGCUCCGUUGCAUGGAGUUUAUCAUG	≤ -4.2
GGAUCUCCUCGAUCUAACAAAAAAGACAAAUCUGCCACAAAGCUUGAGAGCAUCUUCGGAUGCAGAGGCGGCAGCCUUCGGUGGCGCGAUAGCGCCAACGUUCUCAACUAUGAUACGCAAAACGCGUGCUCCGUUGAAUGGAGUUUAUGAUG	≤ -4.2
GGAUCUCCUCGAUCUAACAAAAAAGACAAAUCUGCCACAAAGCUUGAGAGCAUCUUCGGAUGCAGAGCCGACAGCCUUCGGUGGCGCGAUAGCGCCAACGUUCUCGACUAUGACACGCAAAACGCGUGCUCCGUUGAAUGGAGUUUAUCAUG	≤ -4.2
GGAUCUGCUCGAUCUAACAUAAAAGACAAAUCUGCCACCAAGCUUGAGAGCAUCUUCGGAUGCAGAGGCGGCAGCCUUCGGUGGCGCGAUAGAGCCAACAUUCUCAACUAUGACACGCAAAACGCAGGCUCCGUUGAAUGGAGUUUAUUAUG	≤ -4.2
GGAUCUCCUCGAUCUAACAAAAAAGACAAAUCUGCCACAAAGCUUGAGAGCAUCUUCGGAUGCAGAGGCGGCAGCCUUCGGUGGCGCGAUAGCGCCAACGUUCUCAACUAUGACACGCAAAACGCGUGCUCCGUUGAAUGGAGUUUAGCAUG	≤ -4.2
GGAUCUGCUCGAUCUAACACAAAAGACAAAUCUGCCACAAAGCUUGAGAGCAUCUACGGAUGCAGAGGCGGGGGCCUUCGGUGGUGCGAUAGGGCCAGCGUUCUCAACUAUGACUCGCAAAACGCGUGCUCCGUUGAAUGGAGUUUAUCAUG	≤ -4.2
GGAUCUCCUCGAUCUAACAAAAAAGACAAAUCUGCCACAAAGCUGGAGAGCAUCUUCGGAUGCAGAGGCGGCAGCCUUCGCUGGCGCGAUAGCGCCAACGUUCUCAACUAUGACACGCAAAACGCGUGCGCCGUUGAAUGGAGUUUACCAUG	≤ -4.2
GGAUCUCCUCAAUCUAACAAAAAAGACAAAUCUGCCACAAAGCUUGAGAGCAUCUUCGGAUGCAGAGGCGGCAGCCUUCGGUGGCGCGAAAGCGCCAACGUUCUCAACUAUGACACGCAAAACGCGUGCUCCGUUGAAUGGAGUUUAUCAUG	≤ -4.2
GGAUCUGCUCGAUCUACCAAAAAAGACAAAUCUGCCACAAAGCUUGAGAGCAUCUUCGGAUGCAGAGGCGGCAGUCUUCGAUGGAGCGAUAGCGGCAUCGUUCUCAACUAUGACACGCAAAACGCGUGCUCCGUUGAAUGGAGUUUAUCAUG	≤ -4.2
GGAUCUGCUCGAUCUAACCAAAAAGACAAAUCUGCCACAGAGCUUGAGAGCAUCUACGGAUGCAGAGGCGGCAGCCUUCGGUGGCGCGAUAGCGCCAACGUUCUCAACUAUGACACGCAGAACGCGUGCUCCGUUGAAUGGAGUUUAUCCUG	≤ -4.2
GGAUCUCCCCGAUCUAACAUAAAAGACAAAUCUGCCACAAAGCUUGAGAGCAUCUUCGGAUGCAGAGGCGGCAGGCUUCGGUGGCGCGAUAGUGCCAACGUUCUCCACUAUGAAACGCAAAACGCGUGCUCCGUUGAAUGGAGUUUAUCAUG	≤ -4.2
GGAUCUCCUCGAUCUAACAAAAAAGACAAAUCUGCCACAAAGCUUGAGAACAUCUUCGGAUGCAGGGGCGGCAGCCUUCGGUGGCGCGAUAGCGCCAACGUUCUCAACUAUGACACGCAAAACGCGUGCUCCGUUGAAUGGAGUUUAUCAUG	≤ -4.2
GGAUCUCCUCGAUCUAACAAAAAAGACAAAUCUGCCACAAAGCUUGAGAGCAUCUUCGGAUGCAGAGGCGGCAGCCUUCGGUGGUGCGAUAGCGCCAACGUUCUCAACUAUGACACGCAAAACGCGUGCUCCGUUGAAUGGAGUAUAUCAUG	-2.42
GGAUCUCCUCGAUCUAACAAAAAAGACAAAUCUGCCACAAAGCUGGAGAGCAUCUUCGGAUGCAGAGGCGGCAGCCUUCGGUCGCGCGAUAGCGCCAACGUUCUCAACUAUGACACGCAAAACGCGUUCUCGGUUGAAUGGAGUUUCUCAUG	≤ -4.2
GGAUCUCCUCGAUCUAACAAAAAAGACAAAUCUGCCACAAAGCUUGAGAGCAUCUCCGGAUGCAGAGCCGGCAGCCUUCGGUGGCGCGAUACCGCCAACGUUCUCAACUAUGACACGCAAAACGCGUGCUCAGUUGAAUGGAGUUUAUCAUG	≤ -4.2
GGAUCUGCUCGAUCUACCAAAAAAGACAACUCUGCCACAAAGCUUGAAAGCAUCUUCGGAUGCAGCGGCGGCAGCCUUCGGUGGCGCGAUGGCGCCAACGUUCUCAACUAUGAGACGCAAAACGCGUGCUCCGUUGAAUGGAGUUUAUCAUG	≤ -4.2
GGAUCUCCUCGAUCUAACAAAAAAGACAAAUCUGCCACAAAUGUUGAGAGCAUCUUCGGAUGCAGAGGCGGCAGCCGUCGGUGGUGCGAUAGCGCCAACGUUAUCAACUAUGACACGCAAAACGCGUGCUCCGUUGAAUGAAGUUUAUAAUG	≤ -4.2
GGAUCUCCUCGAUCUAACAAAAAAGACAAAUCUGCCACAAAACAUGAGAGCCGCUUCGGAUGCAGAGGCGGCAGCCUUCGGGGGCUCGAUAGCGCCACCGUUCUCAACUAUGACACGCAAAACGCGUGCUCGGUUGAAUGGAGUUUAUCAUG	≤ -4.2
GGAUCUCCUCGAUCUAACAAAAAAGACAAAUCUGCCACAAAGCUUGAGAGCAUCUUCGGAUGCAGAGGCGGCAGCCUUCGAUGGCGCGAUAGGGCCAACGUUCUCAACUAUGACACGCAAAACGCGUGCUCCGUUGAAUGGAGUUUAGCAUG	≤ -4.2
